Reference: PubChem BioAssay AID488969 (Vanderbilt High Throughput Screening Facility, 2010)
Over roughly 110,000 compounds, “z-score” has its median near -0.1; the highest 2% begin near 2. This is one part of the list.

biological target: Metabotropic glutamate receptor 8 (Rattus norvegicus) (UniProt P70579); experiment: mGluR8 Gi/Go-coupled signaling modulation – cell-based, rat, thallium flux, HTS, primary screen (AID 488969); conditions: HEK293 rat mGluR8, GIRK (G protein-gated inwardly rectifying potassium channel) thallium flux, FluoZin2; at 10 µM; stronger effect = higher value; submaximal glutamate (EC20) added with thallium
UniProt P70579, sequence (P70579 whole entry, looked up): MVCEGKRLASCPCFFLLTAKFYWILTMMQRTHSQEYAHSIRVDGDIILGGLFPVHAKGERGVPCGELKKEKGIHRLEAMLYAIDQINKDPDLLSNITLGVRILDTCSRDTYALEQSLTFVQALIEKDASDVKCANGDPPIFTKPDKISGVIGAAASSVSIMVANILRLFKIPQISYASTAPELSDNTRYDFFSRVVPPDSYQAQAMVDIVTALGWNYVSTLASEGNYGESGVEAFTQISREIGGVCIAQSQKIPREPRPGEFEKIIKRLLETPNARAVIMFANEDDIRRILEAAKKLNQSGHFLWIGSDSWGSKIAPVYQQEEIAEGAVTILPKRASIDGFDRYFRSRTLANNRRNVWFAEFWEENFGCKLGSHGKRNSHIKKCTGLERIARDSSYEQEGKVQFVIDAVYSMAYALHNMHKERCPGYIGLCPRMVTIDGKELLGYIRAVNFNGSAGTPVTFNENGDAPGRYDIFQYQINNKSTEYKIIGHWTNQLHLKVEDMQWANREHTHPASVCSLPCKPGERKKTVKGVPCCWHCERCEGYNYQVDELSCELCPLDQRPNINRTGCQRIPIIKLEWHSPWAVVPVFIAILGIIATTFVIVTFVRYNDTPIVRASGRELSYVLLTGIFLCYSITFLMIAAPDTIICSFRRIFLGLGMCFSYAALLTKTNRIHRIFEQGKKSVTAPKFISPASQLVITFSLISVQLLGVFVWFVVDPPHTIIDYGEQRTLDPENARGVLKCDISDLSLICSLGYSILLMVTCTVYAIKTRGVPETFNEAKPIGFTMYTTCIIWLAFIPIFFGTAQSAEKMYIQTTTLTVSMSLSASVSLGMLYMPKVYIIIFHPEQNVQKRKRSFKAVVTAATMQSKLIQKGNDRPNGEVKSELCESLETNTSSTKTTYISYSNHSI

Compared with `CC(=O)n1nc(-c2cccnc2)nc1N`, `c1ccc(Nc2nc(-c3cccnc3)cs2)nc1` is lower in z-score: 0.0439 for the first, -0.108 for the second.

Compared with `O=C1c2ccccc2C(=O)N1CC(=O)N1c2ccccc2Sc2ccc(C(F)(F)F)cc21`, `COC(=O)C1=C(C(=O)OC)C2(OC1c1ccccc1C)C(=O)c1ccccc1C2=O` (centres undefined) is lower in z-score: -0.314 for the first, -0.448 for the second.

Going from `Cc1nn2c3cc(N4CCOCC4)ccc3nc2c2ccccc12` to `O=C(c1ccccc1)c1ccc(N2CCCC2)cc1`, the z-score falls from 1.4 to 0.163.

Compared with `CC(C)c1ccc(CN2CCC(C(=O)NCc3cccnc3)CC2)cc1`, `Cc1ccccc1-c1nc(CN2CCC(C(=O)NC3CCN(Cc4ccccc4)CC3)CC2)c(C)o1` is higher in z-score: 0.0452 for the first, 0.236 for the second.

Compared with `CCOc1cc(C(=S)N2CCOCC2)ccc1O`, `COc1ccc(S(=O)(=O)N2CCC(C(=O)N3CCOCC3)CC2)cc1` is higher in z-score: -0.0369 for the first, 0.152 for the second.

First: COc1ccc(CCN2C(=O)c3ccncc3C2=O)cc1OC
Second: COC(=O)C1=C(C)N(Cc2ccc(OC)cc2)C(=O)C1
The z-score of the first is higher: -0.0439 for the first, -0.151 for the second.

Compared with `Nn1c(SCC(=O)Nc2ccc3c(c2)OCO3)nnc1-c1ccncc1`, `COc1ccc(-n2c(SCC(=O)NNC(=O)c3ccccc3C)nnc2-c2ccncc2)cc1` is lower in z-score: -0.176 for the first, -0.25 for the second.

Compared with `O=C(c1cc(-c2ccccc2)nc2ccccc12)N1N=C(C(F)F)CC1(O)C(F)F` (centres undefined), `Cc1ccccc1C(=O)Oc1cccc(Nc2ncnc3ccccc23)c1` is lower in z-score: -0.111 for the first, -1.4 for the second.

Compared with `CCOC(=O)c1c(NC(=O)CSc2nncs2)sc(C)c1C`, `CCOC(=O)c1c(NC(=O)C2CCCN(S(=O)(=O)c3ccc(C)cc3)C2)sc2c1CCCC2` (centres undefined) is lower in z-score: -0.535 for the first, -1.01 for the second.

First: COC(=O)c1cc2sc(Cl)cc2n1Cc1nc(-c2cccc(C)c2)oc1C
Second: CCc1nc2ccc(C)cc2c(C(=O)Oc2cccc3cccnc23)c1C
The z-score of the first is lower: -0.256 for the first, -0.12 for the second.

Going from `COc1ccc(Nc2nc(NCCO)nc(OC)n2)cc1` to `COc1cc(Nc2ccc(C)cc2)c([N+](=O)[O-])nc1[N+](=O)[O-]`, the z-score falls from 0.28 to -1.45.

First: CCOC(=O)Cn1nc(C)c(-c2ccccc2)c1N
Second: CCOC(=O)Nc1cccc(OCC(=O)Nc2ccccc2OCC)c1
The z-score of the first is higher: 0.0625 for the first, -0.0863 for the second.

Going from `Cc1ccc(NC(=S)N(CCN(C)C)C(C)c2ccco2)cc1C` (centres undefined) to `CC1(C)CC(C(=O)NCCC(c2ccccc2)c2ccco2)CCO1` (centres undefined), the z-score rises from -0.172 to -0.131.

Going from `CN1CCN(C(=O)C2(NC(=O)Nc3cccc(F)c3)CCCCC2)CC1` to `CN1CCN(C(=O)c2ccc3c(=O)n(CCc4ccccc4)c(=S)[nH]c3c2)CC1`, the z-score rises from -0.329 to 0.284.

First: CC(C)CC(NS(=O)(=O)c1ccc2c(c1)oc(=O)n2C)C(=O)NCc1cccnc1 (centres undefined)
Second: CCOc1cc(NS(=O)(=O)CC)c(OCC)cc1NC(=O)c1ccco1
The z-score of the first is lower: -1.69 for the first, -0.521 for the second.

First: Cc1nnc(NC(=O)CSc2cn(Cc3ccccc3)c3ccccc23)s1
Second: O=C(Nc1nnc(SCc2ccccc2)s1)c1cccs1
The z-score of the first is higher: 0.0158 for the first, -0.61 for the second.

First: O=C(NC1CCCC1)C(NS(=O)(=O)c1cccc2nsnc12)c1ccccc1 (centres undefined)
Second: Cc1ccc(S(=O)(=O)N2CCCC(C(=O)N3CCCc4ccccc43)C2)cc1 (centres undefined)
The z-score of the first is higher: 0.294 for the first, -0.204 for the second.

Going from `COc1ccc(C2Nc3ccccc3C(=O)N2Cc2ccco2)cc1COc1ccc(F)cc1` (centres undefined) to `COc1ccc(C2Nc3ccccc3C(=O)N2c2ccc(C)cc2)cc1COc1ccccn1` (centres undefined), the z-score rises from -0.406 to -0.382.

Going from `CC(=O)C1=C(c2ccccc2)NC(=O)NC1c1ccccc1OCC(=O)NCc1ccccc1` (centres undefined) to `CC(CCc1ccccc1)NC(=O)c1ccc(NC(=O)c2ccccc2)cc1` (centres undefined), the z-score falls from -0.25 to -0.424.

Compared with `N=c1c2c(n(Cc3ccccc3)c3c1CCC3)CCC2`, `O=C(CN1CCOc2ccccc21)NC1CCCCCCC1` is lower in z-score: 0.223 for the first, -0.331 for the second.

Compared with `CCOC(=O)N1CCC(NC(=O)c2sc3nc4n(c(=O)c3c2C)CCCC4)CC1`, `C=CCn1c(SCC(=O)NC2CCCCC2)nnc1C(C)NC(=O)c1cccs1` (centres undefined) is higher in z-score: -0.186 for the first, -0.128 for the second.

Compared with `O=C(COC(=O)Cc1cn2ccsc2n1)NCc1ccc2c(c1)OCO2`, `COC(=O)Cc1c(C)c2ccc(OCC(=O)NCc3ccc4c(c3)OCO4)cc2oc1=O` is lower in z-score: 0.0905 for the first, 0.0387 for the second.

First: COC(=O)C1=NNC2(c3ccc(Cl)cc3)C(=O)N(c3ccc(Cl)cc3)C(=O)C12 (centres undefined)
Second: COc1ccc(C2NC(=O)c3sc(=S)n(-c4ccccc4)c3N2)cc1 (centres undefined)
The z-score of the first is higher: 0.081 for the first, -0.318 for the second.

First: O=C(/C=C/c1cccc(OCc2ccccc2)c1)c1cccnc1
Second: O=C(COC(=O)/C=C/c1ccccc1)Nc1ccccc1Br
The z-score of the first is lower: -0.519 for the first, 0.366 for the second.

Going from `O=C(Nc1ccccc1)NC1CC2CCC(C1)N2Cc1nnnn1Cc1ccc2c(c1)OCO2` (centres undefined) to `CS(=O)(=O)N(CC(=O)Nc1ccccc1)Cc1ccc(Cl)cc1`, the z-score rises from 0.0722 to 0.264.

Compared with `O=C1OC2CCC1(c1ccccc1)C2` (centres undefined), `O=C(c1ccc(Br)o1)N1CCN(C/C=C/c2ccccc2)CC1` is higher in z-score: 0.00964 for the first, 0.0888 for the second.

First: O=C(CN(Cc1ccc(F)cc1)S(=O)(=O)c1ccc(S(=O)(=O)N2CCOCC2)cc1)Nc1ccccc1
Second: Cc1ccc(S(=O)(=O)N2CCN(C(=O)CCC(=O)NCc3ccc(F)cc3)CC2)cc1
The z-score of the first is higher: -0.0119 for the first, -0.183 for the second.

Going from `Cc1ccc(Cc2nc(-c3cccc(C)c3)no2)cc1` to `CCOc1ccc(C2C=C(c3ccc(C)cc3)Nc3ncnn32)cc1` (centres undefined), the z-score falls from -0.14 to -0.263.

First: CN1c2ccccc2C2(C)CCCC3=Cc4cc([N+](=O)[O-])cc([N+](=O)[O-])c4OC312 (centres undefined)
Second: O=[N+]([O-])c1ccc(-c2nnc(-c3ccccc3)c(NCCCO)n2)cc1
The z-score of the first is lower: -0.376 for the first, -0.236 for the second.

First: O=C(NC(=S)Nc1ccccn1)c1ccc([N+](=O)[O-])cc1
Second: COc1ccc(OC)c(NC(=O)N[C@@H](Cc2ccccc2)C(=O)O)c1
The z-score of the first is higher: 0.166 for the first, -0.217 for the second.

Compared with `CCOC(=O)c1c(C)[nH]c(C=C2C(=O)CCCC2=O)c1O`, `CCOc1ccc(S(=O)(=O)Nc2cc(S(=O)(=O)N(CC)CC)ccc2N2CCCC2)cc1` is higher in z-score: -0.22 for the first, -0.0168 for the second.

Going from `COC(=O)/C(=C/c1ccco1)NC(=O)c1ccco1` to `Cc1nn(C)cc1/C=C/C(=O)c1cccs1`, the z-score rises from 0.0704 to 0.139.

Going from `COc1ccc(NC(=O)N(C2CCCCC2)C2CCN(C(C)C)CC2)c(OC)c1` to `COc1ccc2c(c1)[nH]c1c(=O)n(CCN(C)C)cnc12`, the z-score rises from -0.188 to 0.385.

First: O=C(c1ccc(O)cc1)c1ccc(C(=O)c2ccc(O)cc2)cc1
Second: CCn1c(SCC(=O)N/N=C/c2ccc(C)o2)nnc1-c1ccc(C)cc1
The z-score of the first is higher: 0.0126 for the first, -0.634 for the second.

`c1ccc(CNCCN2CCNCC2)nc1` was tested, and the z-score was 0.129.
